Measured values published in the RNAGym collection of RNA variant scans (doi:10.7554/elife.90254).
The source gives no read counts; variants with many changes may rest on few reads.

B1: OR4K15 (parent)
chain: GUUAACGGUCAUAGGCCAUGGAAACUAGGAGCACCAUUUCGCUGCCAGUGAAGAAAUGAACAAAGAAAAUCUGGGCCAGGCAGGCAUCAAAAGAAAUAGUCUUGCGCUCAACCAGAAAGUCUGUAAUCAUUUUAAGGGUA

Variants of: B1
Assay: self-cleavage, relative activity (ratio to wild type); higher = more cleavage; in vitro, sequencing; the parent is a self-cleaving ribozyme

Variant | self-cleavage
A4C A23G U37C | 1.64
U2C U127G A134G | 1.36
A54G A67G U72C U87A A110U | 0.31
A22C A23G U39C U103C | 0.7
U87C U102C U133A | 2.89
A23G U26C A55G | 1.32
A22U U87C U100C | 2.46
U9C A22G A59G A66G U133A | 1.9
A64U A89G A94U | 0.56
A22U G73U A89G | 0.18
A23G C46U A56G | 1.66
A4G A62G A117U U122C | 0.3
A52G U72C A125G | 0.03
U38A A66U A117G U130C | 0.71
U9C A36U A55G U102C A126G | 1.98
U26C A51G A52G A56U A94G A95G U122C U133C | 2.24
U37C A59G A62G A69G | 1.01
U37C A78G A114G | 0.1
A91G A129U U132A | 0.51
A11C G14U A54G | 1.08
U38C A60G A68U C121A | 2.82

Variant | self-cleavage
G84A A95G U108C A126G | 0
U87C A91G U132C | 0.69
A60G A78G U108C A111G U131C | 0.13
A68G A91U A96G U100C | 2.74
U39C A47U A60G A68U C101A | 0.06
A11G A51G A94G A96G | 0.67
A24U U26C A51G | 1.39
A5G U87C A98G A114G | 0.17
U37C U72C A94G A126G U131C | 0.02
A67G A90G U131C | 0.48
A96G A111U A126G U139C | 0.07
A11U A47U A95U | 0.43
A22G A27G A78G | 0.35
A55G A98U U131C | 1.93
A24C A78G A117G U132C | 0.26
A69G A126G A129G | 0.6
U43A A52G U97C | 0.58
A11G U39C A92U U97C | 0.4
A13G U39C A60G | 1.1
A18U U37C A51G U57C A67G C105G A118G | 0
A5G A64U A117G | 1.51

Variant | self-cleavage
A64G A96G A111U U131C | 0.05
A82U A94G A134U | 0.43
U39A A51U A68U | 2
G8U U12A A23U C71A | 0.91
U43A A52G A78G U97A U100C U122C | 0.27
U2A U43C U49A | 0.72
U72A A78U U100C | 0.04
U9A A68G A91G U103C | 0.23
A86G A95G U132C | 1.9
A23U U57A A59G U87C A110G | 0.15
U2C U49C A54C A68U A91G A96G | 0.94
A117G A129G U130C | 0.43
U37C A54G A86U U97C A129G | 1.18
A52G A66G U103A | 1.5
A89G A95G U132A | 2.18
U37A U39C U49A | 1.38
U9C G79A U122C | 0.1
A30G U37C C85A | 1.31
U57C A67U A78U A95G | 0.43
U49C U103C A114G | 0.06
A30U U108C A114G | 0.01

Variant | self-cleavage
A33G A52G A86C U133C | 0.98
A33G U49A U108A A135G | 0.02
U19A A52G A55G U87C C88U A95C | 1.02
C25U A78U U100C | 0.8
U39C A67U A118U | 1.79
A22U A110U A111G A117G U127C | 0
A30G A82U A90G | 0.21
A36G U43A A91G U100C U131C A140G | 2.5
U39C A52G A91G | 0.92
G31A A54G A98G U131C | 0.27
U38A A55G U108C | 0.04
U19C A24G A27U A60G | 1.54
A5G U12C A27U A52G U100C U139A | 1.29
A47U G48A A116G | 0.35
U3C A52U U72C | 0.19
A33U A47G G79A U120C | 0.1
A18U A47U A60G A94G U120C | 0.23
A18U G75C U87C | 0.23
U38C A51U A91G A96G | 1.8
A59G A86G U108G | 0.05
